The whole screen tested about 390,000 compounds, of which about 17,000 (4.4%) were called active. Inconclusive results, whose numbers are uncertain, are shown with a selection of clear calls. The call rests on the fitted dose curve; in most records, active means well fitted inhibition curve with a large enough effect; inconclusive means small, poorly fitted or top-dose-only effect; inactive means no such curve, though single readings can be large or run the other way. Potencies beside an inconclusive call are fits to weak or partial responses and may not hold up.
These compounds were tested against Lysine-specific demethylase 4A (Homo sapiens) (UniProt O75164) (assay: qHTS Assay for Inhibitors of JMJD2A-Tudor Domain). Settings: AlphaScreen JMJD2A-Tudor / H3K4me3 peptide binding; series mostly up to 114 µM.
Further: nearly all actives have a fitted effect of over 50% in size.
Potency means the concentration at half of the fitted maximal effect; tags describe the fitted curve by direction and shape.

Chain of UniProt O75164 (O75164 whole entry, looked up, the tested form may be a part): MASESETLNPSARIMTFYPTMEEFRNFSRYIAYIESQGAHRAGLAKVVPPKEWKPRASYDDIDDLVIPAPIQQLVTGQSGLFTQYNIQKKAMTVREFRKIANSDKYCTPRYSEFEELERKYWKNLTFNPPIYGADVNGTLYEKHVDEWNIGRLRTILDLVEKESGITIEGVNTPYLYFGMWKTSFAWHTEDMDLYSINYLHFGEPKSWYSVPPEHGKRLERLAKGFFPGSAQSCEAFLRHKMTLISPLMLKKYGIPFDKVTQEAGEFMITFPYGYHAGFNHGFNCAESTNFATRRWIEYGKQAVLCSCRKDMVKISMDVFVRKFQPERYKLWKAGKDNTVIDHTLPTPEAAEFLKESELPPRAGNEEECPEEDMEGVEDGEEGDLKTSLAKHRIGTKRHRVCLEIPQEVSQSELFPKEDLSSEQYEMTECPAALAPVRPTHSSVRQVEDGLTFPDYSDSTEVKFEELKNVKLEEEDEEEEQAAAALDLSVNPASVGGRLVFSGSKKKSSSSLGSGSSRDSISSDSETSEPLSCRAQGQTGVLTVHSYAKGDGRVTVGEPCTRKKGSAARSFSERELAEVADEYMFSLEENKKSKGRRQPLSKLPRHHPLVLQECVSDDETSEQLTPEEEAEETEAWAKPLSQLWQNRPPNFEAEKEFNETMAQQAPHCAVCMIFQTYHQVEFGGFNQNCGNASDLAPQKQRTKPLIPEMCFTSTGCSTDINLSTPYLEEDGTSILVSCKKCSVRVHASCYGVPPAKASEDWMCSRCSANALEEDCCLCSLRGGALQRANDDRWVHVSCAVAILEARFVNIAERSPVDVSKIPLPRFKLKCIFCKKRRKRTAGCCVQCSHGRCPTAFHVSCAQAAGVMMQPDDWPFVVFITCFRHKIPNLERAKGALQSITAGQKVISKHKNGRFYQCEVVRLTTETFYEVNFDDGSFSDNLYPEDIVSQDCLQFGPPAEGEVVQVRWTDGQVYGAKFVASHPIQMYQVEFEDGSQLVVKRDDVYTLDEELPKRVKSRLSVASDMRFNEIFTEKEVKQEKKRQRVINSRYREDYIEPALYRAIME

Potency, inconclusive:
CN(C)c1ccc(CNC(=O)c2ccc(CNc3c(N4CCCCC4)c(=O)c3=O)cc2)cc1 44.7 µM [inhibitor, partial curve]
CC1CCc2nc3ccc(S(=O)(=O)N4CCC(C(=O)O)CC4)cc3c(C(=O)O)c2C1 (stereo not drawn) 22.4 µM [inhibitor, partial curve, poor fit]
Cc1ccc(C(=O)N(NC2=NS(=O)(=O)c3ccccc32)S(=O)(=O)c2ccc(C)cc2)cc1 22.4 µM [inhibitor, full curve, poor fit]
CC(=O)c1cccc(NC(=O)COC(=O)c2cccs2)c1 10 µM [inhibitor, full curve, poor fit]
COc1cc(-c2nc(CN3CCCN(C(=O)c4ccco4)CC3)c(C)o2)ccc1F 35.5 µM [inhibitor, single point]
COc1cc2c(C(=O)N3CCN(c4cccc(Cl)c4)CC3)cn(CC(C)C)c(=O)c2cc1OC 79.4 µM [inhibitor, partial curve]
CC(C)N1CC2=C(OC(N)=C(C#N)C2c2cccnc2)/C(=C/c2cccnc2)C1 (stereo not drawn) 25.1 µM [inhibitor, full curve, poor fit]
Cc1ccc(N2CCN(C(=O)C3CCN(S(=O)(=O)c4cccc5nsnc45)CC3)CC2C)cc1 (stereo not drawn) 39.8 µM [inhibitor, partial curve]
CCc1ccccc1NC(=O)CCCn1c(=O)c2cccn2c2ccccc21 39.8 µM [inhibitor, partial curve]
CCN1CCN(c2ccc(S(=O)(=O)N3CCCCC3)cc2NC(=O)c2cccc(Cl)c2)CC1 50.1 µM [inhibitor, partial curve]
O=S(=O)(NCc1ccc(F)cc1)c1ccc2[nH]c3c(c2c1)CCCC3 25.1 µM [inhibitor, full curve]
O=C(NC(=S)Nc1ccc(NC(=O)c2cccs2)cc1)c1ccco1 28.2 µM [inhibitor, single point]
Cc1cc(/C=C(\C#N)C(N)=O)c(C)n1-c1ccc(N2CCOCC2)c([N+](=O)[O-])c1 17.8 µM [inhibitor, full curve, poor fit]
O=C(OCc1ccc([N+](=O)[O-])cc1)C1CC(=O)N(Cc2ccccc2Cl)C1 (stereo not drawn) 39.8 µM [inhibitor, partial curve]
O=C(c1ccc2c(=O)n(CC3CCCO3)c(=S)[nH]c2c1)N1CCN(C(=O)c2ccco2)CC1 (stereo not drawn) 50.1 µM [inhibitor, partial curve]
COc1ccc(-c2nn(-c3ccccc3)cc2C(=O)Nc2nccs2)cc1OC 50.1 µM [inhibitor, partial curve]
Cc1cc(C(=O)OCC(=O)N2CC(=O)Nc3ccccc32)c(C)n1-c1ccc(F)cc1 63.1 µM [inhibitor, partial curve, poor fit]
O=C1CC(Nc2ccc(N3CCOCC3)cc2)C(=O)N1c1cccc(C(F)(F)F)c1 (stereo not drawn) 44.7 µM [inhibitor, full curve]
O=[N+]([O-])c1ccc(NCCNCCOc2nonc2-c2ccccc2)c([N+](=O)[O-])c1 20 µM [inhibitor, full curve]
Cc1cc(-c2csc3nc[nH]c(=S)c23)cc(C)c1C 79.4 µM [inhibitor, partial curve]
C/C=C/C=C/C(=O)Nc1nccs1 31.6 µM [inhibitor, partial curve]
CCOC(=O)c1c(NC(=O)C2(C)Cc3ccccc3C(=O)O2)sc2c1CCCC2 (stereo not drawn) 39.8 µM [inhibitor, single point]
CCOC(=O)N1CCc2cc(OC)c(OC)c3c2c1cc1cc(OC)c(OC)cc13 56.2 µM [inhibitor, partial curve]
CCN(CC)CCN(C(=O)c1ccc2ccccc2c1)c1nc2cc3c(cc2s1)OCO3 25.1 µM [inhibitor, full curve]
COc1ccc(NC(=O)N2CCN(S(C)(=O)=O)CC2)cc1 31.6 µM [inhibitor, single point]

Potency, inactive:
CC/C(=N\NC(=O)c1ccc(CN(C)S(=O)(=O)c2ccc(C)cc2)cc1)c1ccc(OC(F)F)cc1
O=C(O)c1ccc(Cl)c(S(=O)(=O)N2CCC(Cc3ccccc3)CC2)c1
OCCCCCN=c1cc(-c2ccccc2)oc2ccc(Cl)cc12
COCCNC(=O)c1cn(Cc2c(F)cccc2Cl)nn1
CCCNC(=O)c1nn2c(C(F)(F)F)cc(-c3ccccc3)nc2c1Br
CC(C)(O)CC[C@@H](O)[C@](C)(O)C1CC[C@@]2(O)C3=CC(=O)[C@]4(O)C[C@@H](O)[C@@H](O)C[C@]4(C)C3CC[C@]12C (stereo partly drawn)
COc1ccccc1COn1c(=O)c(-c2ccco2)[n+]([O-])c2ccccc21
CCOC(=O)c1c(NC(=O)c2cc(C)oc2C)sc(C(=O)Nc2ccc(Cl)cc2)c1C
CC(=O)Nc1ccc(S(=O)(=O)N[C@@H](C)C(=O)N2CCN(c3ccccn3)CC2)cc1

Potency, active:
CCCn1c(N)c(C(=O)CN(C)CC(=O)Nc2ccc(C)cc2)c(=O)[nH]c1=O 22.4 µM
CCOC(=O)c1c(/N=C/c2cc(C)ccc2O)sc2c1CCN(C)C2 44.7 µM
S=C(Nc1ccc(Nc2ccccc2)cc1)NC1CCCCCC1 20 µM
Fc1cccc(C[n+]2csc3ccccc32)c1 79.4 µM
CSc1nsc(/C=C/Nc2ccc(O)cc2C)c1C#N 50.1 µM
O=C1NC(c2ccccc2)C(C(=O)c2cccs2)=C1O (stereo not drawn) 25.1 µM
COc1ccc(/C(O)=C/C(=O)C(=O)Nc2c(C)n(C)n(-c3ccccc3)c2=O)cc1 22.4 µM
O=C(NCc1ccco1)C1c2ccccc2Oc2ccccc21 50.1 µM
O=S(=O)(c1ccccc1)N1CCC(N2CCCCCC2)CC1 3.98 µM
